From the supplement of paper PMC10338343
± gives the standard deviation. The list shows a part of the results, in another mix than the full data.

Test system: MIWI (PIWIL1) piRISC loaded with piRNA #1 (30 nt)
Assay: pre-steady-state target cleavage rate (min^-1); MIWI and MILI are mouse PIWI proteins and EfPiwi is from a freshwater sponge; tags in brackets are library labels; higher = faster piRNA-guided slicing of the target
Conditions: guide: piRNA #1 5'p-UGAGGUAGUAGGUUGUAUAGUAUCCAGAGG; auxiliary factor: 500 nM mouse GTSF1
Outline: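 The pre-steady-state cleavage rate was obtained by Cleave-'n-Seq with a burst-and-steady-state fit. A transcribed, DNA-blocked target RNA library (0.1 nM) was mixed with 1 nM active affinity-purified piRISC carrying one synthetic guide, with or without 500 nM GTSF1 partner protein, in HEPES–potassium acetate buffer at 33 °C for 0–8 or 0–960 min. Uncleaved targets were sequenced and normalised to depth and to weakly complementary targets, with three trials pooled and k3 capped at 0.0001 min^-1.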

First: GGACUGGAUACUAUACAACCUUCUACCACA
Second: GGAGAGGAUACUAUACAUCCUACUACCUCA
The “pre-steady-state target cleavage rate” value of the first is lower: 0.0747 ± 0.014 for the first, 1.15 ± 0.058 for the second.

Going from GGAGACCUAUGAUUACAAGGAACUACCUCA to GCUCUGGAUACUAUACAACCUGACUACCUCA, the “pre-steady-state target cleavage rate” value rises from less than 0.0001 to 0.00419 ± 0.0023.

GGACUGGAUUCUUUACAACCUACUACCUCA and CCUCUGGAAACUAUACAACCUACUAGCUCA are within error of each other in “pre-steady-state target cleavage rate” value: 1.13 ± 0.1 for the first, 1.21 ± 0.13 for the second.

First: GGAGUGGAUACUAUACAACUACUACCUCA
Second: CCUCUGGAUACUAUACCACCUACUACCUCA
The “pre-steady-state target cleavage rate” value of the first is lower: 0.496 ± 0.035 for the first, 1.82 ± 0.11 for the second.

Compared with GCUCUGGAUACUAUAGAACCUACUACCUGA, GGAGAGGAUACUAUAGUACCUACUACCUCA is higher in “pre-steady-state target cleavage rate” value: 0.0822 ± 0.021 for the first, 1 ± 0.073 for the second.

GGAGACCUAACUAUACAACCUACUACCAUCA and GCUCUGGAUACUAUACUACCUACUACCUGA are within error of each other in “pre-steady-state target cleavage rate” value: 0.947 ± 0.095 for the first, 0.928 ± 0.12 for the second.

Compared with “GGAGACCAUACUAUACAACCUACUUGGAGA [g7:g23:cont:t1A]”, GGAGAGGAUACUAUGACAACCUACUACCUCA is higher in “pre-steady-state target cleavage rate” value: 0.0643 ± 0.017 for the first, 1.09 ± 0.054 for the second.

Compared with GGUCUGGAUACUAUACAACCUACUACCUACA, GGAGUGGAUACUAUACAACCUACUACGUCA is lower in “pre-steady-state target cleavage rate” value: 0.849 ± 0.069 for the first, 0.398 ± 0.034 for the second.
